Experimental data as given in PubChem BioAssay AID1345082 (National Center for Advancing Translational Sciences (NCATS), 2018).
About 4,000 (4.3%) of roughly 94,000 compounds were called active. Inconclusive means that the source gave no clear call. Such entries were picked first, then a sample of the others. Calls come from the whole dose curve; as a rule, active = well fitted inhibition curve with a large enough effect; inconclusive = small, poorly fitted or top-dose-only effect; inactive = no such curve, though single readings can be large or run the other way. Where the call is inconclusive, the potency comes from a doubtful curve fit.
% is set by controls: 0 for no effect and ±100 for the full control effect; potency is the fitted concentration of half-maximal effect; tags give direction and shape of the fitted curve.

Experiment: Cytotoxic Profiling in NIH 3T3 Cell Line of Diverse Libraries Using Quantitative High-Throughput Screening; note: nearly all actives have a fitted effect of over 55% in size
Settings: NIH 3T3 viability, CellTiter-Glo ATP luminescence, 48-72 h; activity change, negative = cytotoxicity: at 96.7 µM (top of the series) unless noted; series mostly up to 96.7 µM
In short: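 Cytotoxicity was measured by CellTiter-Glo ATP luminescence after 48 or 72 h compound exposure at 37 °C. Mouse NIH 3T3 fibroblasts were seeded at 400 cells/well and dosed by 23 nL pin transfer.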
In the case of `Fc1ccc(-c2nnc3ccc(NC4CCC4)nn23)nc1`, the Potency is reported as inconclusive: 100 µM [inhibitor, partial curve, poor fit]. In the case of `Cc1cccc(NC(=O)N2CCc3c(C(=O)N(C)Cc4ccco4)cccc32)c1`, the Potency is reported as inconclusive: 50.1 µM [inhibitor, single point]. For `CC(C)NC(=O)C[C@@H]1O[C@H](CNC(=O)c2cccc(F)c2)[C@@H](O)[C@H]1O`, the “activity change, negative = cytotoxicity” value was inactive: 0.825% [at 174 µM]. With `COc1cccc(CN2CCOC[C@H](Oc3ccc(C(F)(F)F)cc3)C2)c1` the Potency was inconclusive: 100 µM [inhibitor, single point]. In the case of `CC1=C[C@@H](CNCc2ccc(F)cc2)[C@H](C(C)C)C[C@H]1Cc1nnc(C)o1`, the Potency is reported as inconclusive: 112 µM [inhibitor, single point]. For `COc1ccc(CN(C)Cc2ccoc2)cc1OCC(O)CN1CCCCC1` (stereo not drawn), the Potency was inconclusive: 56.2 µM [inhibitor, partial curve, poor fit]. With `CCc1nc2c(c(-c3ccc(O)cc3)n1)CN(C(=O)Cc1cccc(Cl)c1)CC2` the Potency was inconclusive: 15.8 µM [inhibitor, full curve, poor fit]. With `CN1Cc2nc(NCc3ccccc3)ccc2OCC1=O` the Potency was inconclusive: 112 µM [inhibitor, partial curve, poor fit]. For `O=S(=O)(Nc1cccn2nc(C3CC3)nc12)c1cccnc1`, the “activity change, negative = cytotoxicity” value was inactive: -21.2%. For `CC(C)(C)c1ccc(-c2cc(C[C@H]3CNCC[C@H]3CC(=O)Nc3nccs3)no2)cc1`, the Potency was active: 8.91 µM. For `Clc1ccc(Oc2cccc(CN3CCN(C4CCNC4)CC3)c2)cc1` (stereo not drawn), the Potency was active: 28.2 µM. With `CCOc1ccc(CC(=O)NC2CCN(c3cc(-c4ccc(F)cc4)[nH]n3)C2)cc1OCC` (stereo not drawn) the Potency was inconclusive: 44.7 µM [inhibitor, partial curve, poor fit]. With `c1ccc(CCCN2Cc3[nH]cnc3C[C@H]2c2nc(-c3cnccn3)no2)cc1` the “activity change, negative = cytotoxicity” value was inactive: -33.3% [at 174 µM]. In the case of `CCOC(=O)[C@H]1C[C@]2(CCCCN(CCO)C2=O)N(C(=O)c2cccc(OC)c2)[C@H]1c1ccco1`, the Potency is reported as inconclusive: 56.2 µM [inhibitor, partial curve, poor fit]. With `O=C1CCN(C(=O)c2ccccn2)CCCC(c2nc(-c3ccccc3)no2)CCN1` (stereo not drawn) the “activity change, negative = cytotoxicity” value was inactive: -10.5%. In the case of `COc1ccc(-c2ccc3ncc(Nc4cnccn4)n3n2)cc1OC`, the Potency is reported as active: 25.1 µM. In the case of `Cc1cc2nc3n(c(=O)c2n1CC(=O)NC1CCC(C)CC1)CCCCC3` (stereo not drawn), the Potency is reported as inconclusive: 70.8 µM [inhibitor, single point]. In the case of `CC(C)(C)OC(=O)N1CC(NCc2ccc(-c3ccc(OC(F)(F)F)cc3)cc2)C1`, the Potency is reported as inconclusive: 44.7 µM [inhibitor, partial curve, poor fit].
